From PubChem BioAssay (NCATS)
The shares of active, inactive and inconclusive entries below differ from those in the screen. Potencies beside an inconclusive call are fits to weak or partial responses and may not hold up. The source made the active and inactive calls. The call rests on the fitted dose curve; in most records, active means well fitted inhibition curve with a large enough effect; inconclusive means small, poorly fitted or top-dose-only effect; inactive means no such curve, though single readings can be large or run the other way.

The molecules below were run against Rap guanine nucleotide exchange factor 3 (Homo sapiens) (UniProt O95398) (assay: Confirmatory qHTS for antagonist of cAMP-regulated guanine nucleotide exchange factor 3 (EPAC1) (AID 1645880; further: nearly all actives have a fitted effect of over 55% in size;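 on activity, negative = inhibition: plate controls were DMSO only for no effect and full effect of the ATA control for full effect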)). Settings: EPAC1 Rap1B-BODIPY-GDP exchange, fluorescence; activity, negative = inhibition: at 115 µM (top of the series).
Sequence of UniProt O95398 (O95398 whole entry, looked up): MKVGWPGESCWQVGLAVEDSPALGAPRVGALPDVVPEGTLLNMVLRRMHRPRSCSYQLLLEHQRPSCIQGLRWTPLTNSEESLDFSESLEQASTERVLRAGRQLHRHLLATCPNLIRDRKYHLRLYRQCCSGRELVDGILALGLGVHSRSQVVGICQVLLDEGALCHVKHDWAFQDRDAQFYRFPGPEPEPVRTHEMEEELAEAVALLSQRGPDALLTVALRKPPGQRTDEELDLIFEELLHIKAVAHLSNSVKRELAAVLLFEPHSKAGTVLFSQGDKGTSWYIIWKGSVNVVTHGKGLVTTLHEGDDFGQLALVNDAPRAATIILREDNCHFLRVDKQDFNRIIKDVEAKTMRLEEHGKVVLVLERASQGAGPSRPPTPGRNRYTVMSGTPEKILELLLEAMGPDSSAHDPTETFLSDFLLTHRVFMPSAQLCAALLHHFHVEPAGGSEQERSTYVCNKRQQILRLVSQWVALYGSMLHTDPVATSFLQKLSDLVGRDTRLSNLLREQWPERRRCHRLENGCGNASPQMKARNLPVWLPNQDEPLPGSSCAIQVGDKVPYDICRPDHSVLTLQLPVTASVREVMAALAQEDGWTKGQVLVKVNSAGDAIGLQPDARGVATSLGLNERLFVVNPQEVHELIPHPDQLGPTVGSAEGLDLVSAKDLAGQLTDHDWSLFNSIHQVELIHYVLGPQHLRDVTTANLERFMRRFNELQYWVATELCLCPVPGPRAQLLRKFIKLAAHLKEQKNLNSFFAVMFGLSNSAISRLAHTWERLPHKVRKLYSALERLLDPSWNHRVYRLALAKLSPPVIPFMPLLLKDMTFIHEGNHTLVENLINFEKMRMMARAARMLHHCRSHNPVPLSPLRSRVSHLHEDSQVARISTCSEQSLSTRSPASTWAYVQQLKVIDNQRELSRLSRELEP
In short: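 Released BODIPY-GDP fluoresces less than Rap1-bound BODIPY-GDP; the signal is followed at 480/540 nm at 5-min intervals over 30 min, after 5 min at room temperature. Reactions contain 100 nM EPAC1, 250 nM RAP1B-BODIPY-GDP and 50 uM GDP; results are normalized to ATA and DMSO.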
Potency means the concentration at half of the fitted maximal effect; tags describe the fitted curve by direction and shape.

Potency, inconclusive:
N#CC(c1nc2ccccc2nc1OCCO)S(=O)(=O)c1ccccc1 (configuration not stated) 44.7 µM [inhibitor, partial curve], Cc1cc(C2(c3ccc(O)c(C)c3)C(=O)N(C)c3ccc(Br)cc32)ccc1O 50.1 µM [inhibitor, partial curve, poor fit], CCOc1cc(/C=C2/SC(=S)N(CC(=O)O)C2=O)ccc1OC(=O)c1cccs1 84.9 µM [inhibitor, partial curve], COc1ccccc1NC(=O)CSc1sc2c(O)cc(=O)[nH]c2c1C#N 20 µM [inhibitor, full curve], COc1ccc2[nH]cc(S(=O)(=O)c3ccc(C)cc3)c2c1 84.9 µM [inhibitor, partial curve], CCN(Cc1ccccc1)S(=O)(=O)c1cc2c3c(c1)CCN3C(=O)CC2 7.94 µM [inhibitor, partial curve, poor fit], Cc1ccc(C)c(Nc2cc(C)nc(-c3ccccc3O)n2)c1 11.2 µM [inhibitor, partial curve, poor fit], Cc1oc2c(cc(NS(=O)(=O)c3ccc(F)cc3)c3ccccc32)c1C(=O)O 75.7 µM [inhibitor, partial curve], COc1ccc(/C=N\Nc2ccc([N+](=O)[O-])cc2)c(C(=O)O)c1OC 84.9 µM [inhibitor, partial curve, poor fit], CC1(C)C=Cc2cc(-c3coc4cc(O)cc(O)c4c3=O)cc(O)c2O1 60.1 µM [inhibitor, partial curve, poor fit], O=c1c2ccccc2nc(/C=C/c2cccnc2)n1Cc1ccccc1 12.6 µM [inhibitor, full curve], COc1ccccc1N(CC(=O)Nc1cc(C)on1)S(=O)(=O)c1ccc(Cl)cc1 39.8 µM [inhibitor, partial curve, poor fit], Cc1ccn2cc(-c3cccc(NC(=O)c4cccs4)c3)nc2c1 95.3 µM [inhibitor, partial curve, poor fit], CC(=O)Nc1cccc(C(=O)/C=C/c2ccc(F)cc2)c1 23.9 µM [inhibitor, partial curve], CC1(NC(=O)CCc2nc3sc4c(c3c(=O)[nH]2)CCCC4)CCS(=O)(=O)C1 (configuration not stated) 44.7 µM [inhibitor, partial curve], CCCC(C(=O)Nc1ccc(S(=O)(=O)Nc2nccs2)cc1)c1ccccc1 (configuration not stated) 44.7 µM [inhibitor, partial curve], CCCCC[C@H](C)N1C[C@@H](COCc2ccccc2)Oc2cc(N3CC[C@H](O)C3)ccc2S1(=O)=O 42.6 µM [inhibitor, partial curve]

Potency, active:
O=C(O)C(c1ccccc1)N1C(=O)/C(=C/c2cccs2)SC1=S (configuration not stated) 39.8 µM, Cc1ccc(S(=O)(=O)N2[C@@H](c3ccc(Cl)c(Cl)c3)C(C(=O)O)=C[C@H]2CC2CCCC2)cc1 44.7 µM, Cc1cccc(-c2nc(SCC(=O)Nc3cccc(C(F)(F)F)c3)n3[nH]c(=O)cc3n2)c1 84.9 µM, Cc1cc(C)cc(OCCSc2nc(-c3ccc(C(C)(C)C)cc3)nc3cc(=O)[nH]n23)c1 67.5 µM

activity, negative = inhibition, inactive:
Cc1cc(C)c2c(c1)OC(=O)CC2c1ccccc1C (configuration not stated) -27.1%, C/C(CC(=O)Nc1ccc(Cl)c(C(F)(F)F)c1)=N\NC(=O)c1cnccn1 -28.1%, CCC(C)(C)NC(=O)C(c1ccccn1)N(C(=O)c1csnn1)C1CCCCC1 (configuration not stated) -8.84%, COc1ccccc1C1SCCN1S(C)(=O)=O (configuration not stated) -13.8%, COc1cc2ccccc2cc1C(=O)N1CCc2ccccc21 -30.5%, COCOCCn1cc(CN2CCS(=O)(=O)N(Cc3ccc(-c4ccc(Cl)cc4)cc3)C(CC(C)C)C2=O)nn1 (configuration not stated) -37.5%, Brc1ccc(-c2csc(-c3c[nH]c4ccccc34)n2)cc1 -14.5%, CC(C)CN(C(=O)c1ccco1)c1nc2ccccc2s1 -26.1%, COc1ncc(-c2c(-c3ccccc3OC)sc3ccccc23)cn1 -28.1%, COC(=O)c1ccc2nc(-c3ccc(OC)c(OC)c3)c(CC3CCCCC3)n2c1 -30.8%, CCN(CC(=O)Nc1ccccc1C(F)(F)F)C(=O)CCOc1ccccc1C -25.4%
